Measured values: a compilation of properties of binary mixtures (doi:10.1007/s10973-015-4957-6)
The densities may have been worked out from excess volumes.

Test: xn = mol fraction of the nth substance listed
Details: 101 kPa

Compound: CN(CCO)CCO + CCCCCCn1cc[n+](C)c1.FC(F)(F)C(F)(F)[P-](F)(F)(F)(C(F)(F)C(F)(F)F)C(F)(F)C(F)(F)F
- mass density (308.15 K, x1 = 1): 1030.3 kg/m3
- mass density (313.15 K, x1 = 1): 1026.6 kg/m3
- mass density (318.15 K, x1 = 1): 1023 kg/m3
- mass density (328.15 K, x1 = 1): 1015.7 kg/m3

Compound: CCCCCCn1cc[n+](C)c1.FC(F)(F)C(F)(F)[P-](F)(F)(F)(C(F)(F)C(F)(F)F)C(F)(F)C(F)(F)F + CN(CCO)CCO
- mass density (303.15 K, x2 = 0): 1544.2 kg/m3
- mass density (303.15 K, x2 = 0.1007): 1525.8 kg/m3
- mass density (303.15 K, x2 = 0.1997): 1505.5 kg/m3
- mass density (303.15 K, x2 = 0.2961): 1482.6 kg/m3
- mass density (303.15 K, x2 = 0.4001): 1453.2 kg/m3
- mass density (303.15 K, x2 = 0.5974): 1382.1 kg/m3
- mass density (303.15 K, x2 = 0.7005): 1329.8 kg/m3
- mass density (303.15 K, x2 = 0.8011): 1262.5 kg/m3
- mass density (303.15 K, x2 = 0.8993): 1172.2 kg/m3
- mass density (308.15 K, x2 = 0): 1538.7 kg/m3
- mass density (308.15 K, x2 = 0.1007): 1520.3 kg/m3
- mass density (308.15 K, x2 = 0.1997): 1500 kg/m3
- mass density (308.15 K, x2 = 0.4001): 1447.8 kg/m3
- mass density (308.15 K, x2 = 0.4999): 1415.5 kg/m3
- mass density (308.15 K, x2 = 0.5974): 1376.9 kg/m3
- mass density (308.15 K, x2 = 0.7005): 1324.9 kg/m3
- mass density (308.15 K, x2 = 0.8993): 1167.8 kg/m3
- mass density (313.15 K, x2 = 0): 1533.3 kg/m3
- mass density (313.15 K, x2 = 0.1007): 1514.8 kg/m3
- mass density (313.15 K, x2 = 0.2961): 1471.8 kg/m3
- mass density (313.15 K, x2 = 0.4001): 1442.5 kg/m3
- mass density (313.15 K, x2 = 0.4999): 1410.2 kg/m3
- mass density (313.15 K, x2 = 0.7005): 1320 kg/m3
- mass density (313.15 K, x2 = 0.8011): 1253.1 kg/m3
- mass density (313.15 K, x2 = 0.8993): 1163.5 kg/m3
- mass density (318.15 K, x2 = 0): 1527.8 kg/m3
- mass density (318.15 K, x2 = 0.1007): 1509.4 kg/m3
- mass density (318.15 K, x2 = 0.1997): 1489 kg/m3
- mass density (318.15 K, x2 = 0.2961): 1466.3 kg/m3
- mass density (318.15 K, x2 = 0.4999): 1404.9 kg/m3
- mass density (318.15 K, x2 = 0.5974): 1366.6 kg/m3
- mass density (318.15 K, x2 = 0.7005): 1315.1 kg/m3
- mass density (318.15 K, x2 = 0.8011): 1248.5 kg/m3
- mass density (318.15 K, x2 = 0.8993): 1159.1 kg/m3
- mass density (323.15 K, x2 = 0): 1522.5 kg/m3
- mass density (323.15 K, x2 = 0.1997): 1483.5 kg/m3
- mass density (323.15 K, x2 = 0.2961): 1460.9 kg/m3
- mass density (323.15 K, x2 = 0.4001): 1431.7 kg/m3
- mass density (323.15 K, x2 = 0.4999): 1399.5 kg/m3
- mass density (323.15 K, x2 = 0.7005): 1310.1 kg/m3
- mass density (323.15 K, x2 = 0.8011): 1243.8 kg/m3
- mass density (323.15 K, x2 = 0.8993): 1154.9 kg/m3
- mass density (328.15 K, x2 = 0): 1517.1 kg/m3
- mass density (328.15 K, x2 = 0.1997): 1478 kg/m3
- mass density (328.15 K, x2 = 0.2961): 1455.4 kg/m3
- mass density (328.15 K, x2 = 0.4001): 1426.3 kg/m3
- mass density (328.15 K, x2 = 0.5974): 1356 kg/m3
- mass density (328.15 K, x2 = 0.7005): 1305.1 kg/m3
- mass density (328.15 K, x2 = 0.8011): 1239.1 kg/m3
- mass density (328.15 K, x2 = 0.8993): 1150.5 kg/m3
